The full ranking holds about 33,000 sequences; the median of “E-score (-0.5 to 0.5)” is about -0.035, and the highest 2% start at about 0.34. This is one part of the list.
Target: T1, Mot3 (UniProt P54785)
T1 sequence: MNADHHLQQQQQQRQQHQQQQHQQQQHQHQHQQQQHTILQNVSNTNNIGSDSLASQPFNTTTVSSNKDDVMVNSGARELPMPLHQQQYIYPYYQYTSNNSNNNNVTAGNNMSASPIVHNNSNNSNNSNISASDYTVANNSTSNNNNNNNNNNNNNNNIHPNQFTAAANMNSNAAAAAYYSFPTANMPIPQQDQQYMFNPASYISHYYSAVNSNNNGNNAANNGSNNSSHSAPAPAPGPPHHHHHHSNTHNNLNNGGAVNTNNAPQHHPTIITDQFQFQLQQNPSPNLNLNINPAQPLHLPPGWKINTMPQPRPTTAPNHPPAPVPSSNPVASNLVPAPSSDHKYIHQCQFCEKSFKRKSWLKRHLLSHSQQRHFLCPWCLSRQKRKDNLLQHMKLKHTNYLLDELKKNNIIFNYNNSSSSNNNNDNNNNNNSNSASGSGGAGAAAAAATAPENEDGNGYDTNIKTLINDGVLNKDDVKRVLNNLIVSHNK
Assay: PBM E-score (8-mer binding enrichment) (E-score (-0.5 to 0.5)); higher = stronger / more preferred TF binding; most listed sequences are background and not binding sites
Conditions: protein concentration: 200 nM; construct: GST-full length
Method in brief: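 Each ungapped eight-base word and its reverse complement, pooled, received an E-score from the Universal PBM Analysis Suite. Underlying scans, normalised with masliner, recorded fluorescent anti-GST bound to GST-tagged yeast transcription factors. These were applied at about 100-200 nM to universal all-10-mer Agilent arrays double-stranded by primer extension.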

Sequence | PBM E-score
TACGTAAA | 0.31
GTGTTGGA | 0.177
CACCTTAA | 0.0232
CGGGTCAA | -0.037
GCTGCGCA | -0.323
AGTTGTAG | 0.00177
ACGCTCGA | -0.0921
ACAAGGGA | 0.165
CCTTTGCA | 0.101
GCTAAGTA | 0.0427
CCGTATTC | 0.0799
AGCGGCCT | -0.234
AGCTGACA | -0.004
AAAGGCTA | -0.0308
ACCTATTC | 0.00762
ACCGCACA | -0.261
AAGTCCGG | -0.283
AAATCGGA | -0.176
GTCATTGA | 0.0095
GATTCTAA | 0.0476
TAAACTGA | -0.0256
CACACCGC | 0.0639

Sequence | PBM E-score
AACATAGG | 0.279
AGTAAGAG | -0.101
ACGTCGGC | 0.112
CCTCCAAA | -0.0286
GCGTCACA | -0.173
CGTACTGA | -0.0519
ACGACGTC | -0.186
CAAGAGAA | 0.196
CGCCCCTA | -0.101
AACAGTAG | 0.116
CGGACTGA | -0.27
GTAACACA | 0.253
AAAGTCGC | 0.146
AATCAGAG | -0.146
GGACTAAA | -0.0317
CGATCGGC | -0.254
ATCTATCG | -0.0412
AGCAAGTC | -0.217
ATAACTGC | -0.0269
ATTTTCTG | -0.0419
AAGCCCCA | -0.349
ACGGAGCT | -0.316

Sequence | PBM E-score
AACTAACG | 0.0564
ACCTGTCT | -0.043
ACTTAGCT | -0.171
ATCTGTAA | 0.104
CGGCTTTA | -0.0208
GCCCCGCA | -0.19
ACAGCACA | 0.289
ACACCCCG | -0.336
CTGCTTGC | 0.0147
CAATTGAG | -0.0334
GCCTAGGA | 0.131
CCCGAAGA | -0.239
CCAAACGA | -0.105
ATGGGCAG | -0.0342
AGTCGACC | -0.0923
GCATCCGA | -0.157
TACGGCCA | -0.155
GCGAGAAC | -0.221
CCGCGATC | -0.312
CTGGGACC | -0.239
AACTCCAG | -0.128
GGCTTAGA | -0.0525

Sequence | PBM E-score
CTGCTCAA | -0.113
AACCATAG | -0.12
ACTGTGAC | -0.237
GGCAAGCA | 0.306
CATTCCAC | -0.0436
GTGATAGA | -0.0161
GCAATGAA | 0.211
AGTTGGCA | 0.00785
ACTTCACT | 0.126
ATTTAAAG | 0.0192
AATAAGGA | 0.0872
GCGGAAGC | -0.171
CCGAGGCG | -0.324
TCACGGCA | 0.0633
CTTCCGTA | 0.0741
ACGTAATC | 0.29
ACTATCGG | -0.204
CAATGTCA | 0.119
CGGTGCCC | 0.215
AATTGAGT | 0.0615
CTGTAACA | 0.182
AAAAAAGT | 0.0914

Sequence | PBM E-score
AAGGTCAT | -0.156
ACTCTGTG | -0.0243
CCACATCA | -0.0861
ATGGATTC | -0.094
AACCCCGG | -0.147
ACCCCTGA | -0.19
TAACACGA | 0.402
AGTCCTAA | -0.0302
ACAGTCGG | -0.05
CTTAGTTA | 0.0912
GGATGACA | 0.123
ATCCAAGG | -0.226
ACACACGT | 0.286
AGCAAAAA | 0.0732
TGGACTAA | -0.0636
CCCTTTGC | 0.0681
ATTTCGGC | -0.00521
AGCCAAGA | -0.143
CAGCTGCC | -0.108
AGTGTTTA | 0.126
ACGACGGC | -0.0657
CACTACGG | -0.1
